This is one part of the list. Single values of this set are uncertain. Values with irradiation are relative to irradiated vehicle.
How the values were obtained:
A549-Dual [1] = experiment: NF-kB reporter (SEAP) activity, viability-corrected, relative to vehicle (fold change vs vehicle); higher = more activation of STING-IRF / NF-kB immune response reporter
A549-Dual [2] = experiment: ISRE reporter (Lucia luciferase) activity, viability-corrected, relative to vehicle (fold change vs vehicle); higher = more activation of STING-IRF / NF-kB immune response reporter
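Throughout, for NF-kB reporter (SEAP) activity, viability-corrected, relative to vehicle: viability correction based on the alamar blue assay, with concentrations leaving 10% survival or less dropped.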

Structure (SMILES)	NF-kB reporter (A549-Dual [1]; 0.1 µM, irradiation: 8 Gy/4 fr)	NF-kB reporter (A549-Dual [1]; 0.1 µM, irradiation: none)	NF-kB reporter (A549-Dual [1]; 0.3 µM, irradiation: 8 Gy/4 fr)	NF-kB reporter (A549-Dual [1]; 0.3 µM, irradiation: none)	NF-kB reporter (A549-Dual [1]; 1 µM, irradiation: 8 Gy/4 fr)	NF-kB reporter (A549-Dual [1]; 1 µM, irradiation: none)	NF-kB reporter (A549-Dual [1]; 3 µM, irradiation: 8 Gy/4 fr)	NF-kB reporter (A549-Dual [1]; 3 µM, irradiation: none)	NF-kB reporter (A549-Dual [1]; 10 µM, irradiation: 8 Gy/4 fr)	NF-kB reporter (A549-Dual [1]; 10 µM, irradiation: none)	ISRE reporter (A549-Dual [2]; 0.1 µM, irradiation: 8 Gy/4 fr)	ISRE reporter (A549-Dual [2]; 0.1 µM, irradiation: none)	ISRE reporter (A549-Dual [2]; 0.3 µM, irradiation: 8 Gy/4 fr)	ISRE reporter (A549-Dual [2]; 0.3 µM, irradiation: none)	ISRE reporter (A549-Dual [2]; 1 µM, irradiation: 8 Gy/4 fr)	ISRE reporter (A549-Dual [2]; 1 µM, irradiation: none)	ISRE reporter (A549-Dual [2]; 3 µM, irradiation: 8 Gy/4 fr)	ISRE reporter (A549-Dual [2]; 3 µM, irradiation: none)	ISRE reporter (A549-Dual [2]; 10 µM, irradiation: 8 Gy/4 fr)	ISRE reporter (A549-Dual [2]; 10 µM, irradiation: none)
CC12CCC(CC1)C(C)(C)O2 [Eucalyptol]	0.939	1.06	1	0.943	1.02	0.86	1.35	0.942	0.817	0.879	1.03	0.828	1.11	0.907	0.979	0.993	0.964	1.04	1	0.938
C=C1CCC2C(C)(CO)C(O)CCC2(C)C1C/C=C1\C=COC1=O (stereo not given) [Dehydroandrographolide]	0.933	0.761	0.984	0.785	0.948	0.794	1.09	0.851	0.564	0.947	1.07	0.699	0.878	0.738	0.776	0.717	0.782	0.9	0.384	0.557
CCc1nc(C(N)=O)c(Nc2ccc(N3CCC(N4CCN(C)CC4)CC3)c(OC)c2)nc1NC1CCOCC1 [Gilteritinib (ASP2215)]	1.06	1	0.869	1.03	0.963	1.4	1.08	1.24	1.06	0.933	1.11	0.876	0.678	1.04	0.867	1.03	0.436	1.16	0.413	1.21
CC(=O)OC1CCC2(C)C(=CCC3C2CCC2(C)C(c4cccnc4)=CCC32)C1 (stereo not given) [Abiraterone Acetate]	1.04	1.01	0.959	0.942	1.05	0.964	0.884	1.1	1	0.942	1.03	0.915	0.907	0.904	0.956	0.85	0.851	0.799	0.947	0.777
CC(C)(O)c1ccccc1CCC(SCC1(CC(=O)O)CC1)c1cccc(/C=C/c2ccc3ccc(Cl)cc3n2)c1 (stereo not given) [Montelukast]	1.17	0.775	0.898	0.66	0.719	0.658	0.571	0.716	0.578	0.512	0.971	0.896	0.758	0.709	0.912	0.665	0.631	0.762	0.638	0.643
O=C(Nc1cnn2ccc(N3CCCC3c3cc(F)ccc3F)nc12)N1CCC(O)C1.O=S(=O)(O)O (stereo not given) [Larotrectinib (LOXO-101) sulfate]	1.08	1.07	0.856	1.45	1.04	1.58	0.913	1.49	0.885	1	1.12	1.12	0.878	0.999	1.06	1.08	0.965	0.9	1.08	0.854
Cc1nc(Nc2ncc(C(=O)Nc3c(C)cccc3Cl)s2)cc(N2CCN(CCO)CC2)n1.Cl [Dasatinib hydrochloride]	0.784	1.06	0.692	0.968	0.649	1	0.721	1.19	0.625	1.01	0.398	0.898	0.215	0.472	0.176	0.419	0.176	0.306	0.181	0.404
CCOC(=O)c1c(N)sc2c1CCN(Cc1ccccc1)C2.Cl [Tinoridine hydrochloride]	0.944	0.87	0.919	0.905	0.981	0.783	0.938	0.862	0.764	0.96	0.897	0.646	0.869	0.564	0.684	0.664	0.836	0.813	0.7	0.797
CNC(=O)C(NC(=O)C(CC(C)C)C(O)C(=O)NO)C(C)(C)C (stereo not given) [Marimastat (BB-2516)]	0.872	1.04	0.852	0.953	0.982	0.944	0.949	1.01	1.11	0.889	0.939	0.97	0.904	0.898	0.957	0.823	0.833	0.814	0.944	0.841
Cc1cn(-c2cc(NC(=O)c3ccc(C)c(Nc4nccc(-c5cnccn5)n4)c3)cc(C(F)(F)F)c2)cn1 [Radotinib]	0.972	0.839	0.692	0.972	0.806	1.03	0.743	1.01	0.743	0.815	0.978	1.12	0.829	1.04	0.921	0.915	0.743	0.923	0.671	0.829
COc1cc2c3cc1Oc1c(OC)c(OC)cc4c1C(Cc1ccc(O)c(c1)Oc1ccc(cc1)CC3N(C)CC2)N(C)CC4.Cl.Cl (stereo not given) [Berbamine (dihydrochloride)]	1.25	1.1	0.99	1.17	1.06	1.51	0.949	1.25	0.865	1.11	1.24	1.25	1.18	1.67	1.23	1.56	1.17	1.43	1.18	1.81
COc1cc(C2Oc3cc(C4Oc5cc(O)cc(O)c5C(=O)C4O)ccc3OC2CO)ccc1O (stereo not given) [Silibinin]	1.3	1.22	0.997	1.34	0.931	1.77	1.01	1.33	0.821	1.04	1.12	1.04	1.08	1.14	1.09	1.19	1.09	0.891	0.99	1.09
Nc1ccc(F)cc1NC(=O)c1ccc(CNC(=O)/C=C/c2cccnc2)cc1 [Tucidinostat (Chidamide)]	1.06	1.19	1.13	1.18	1.14	1.31	0.808	1.2	0.693	1.09	0.986	1.44	0.722	1.3	0.788	1.27	0.192	0.808	0.171	0.631
Nc1nc(=O)c2c([nH]1)NCC(CNc1ccc(C(=O)NC(CCC(=O)[O-])C(=O)[O-])cc1)N2C=O.O.O.O.O.O.[Ca+2] (stereo not given) [Leucovorin Calcium Pentahydrate]	0.985	0.982	0.773	0.871	0.93	0.946	0.876	1.04	0.946	0.95	0.907	1.11	0.755	0.841	0.922	1.03	0.839	0.835	0.911	0.879
CS(=O)(=O)CCNCc1ccc(-c2ccc3ncnc(Nc4ccc(OCc5cccc(F)c5)c(Cl)c4)c3c2)o1.Cc1ccc(S(=O)(=O)O)cc1.Cc1ccc(S(=O)(=O)O)cc1	1.03	0.965	1.06	1.02	0.928	0.924	1.07	0.957	0.972	1.15	0.937	0.859	0.978	0.778	0.952	0.854	1.16	0.992	1.16	1.76
C=C(NC(=O)C(=C)NC(=O)c1csc(C2=NC3c4csc(n4)C4NC(=O)c5csc(n5)C(C(C)(O)C(C)O)NC(=O)C5CSC(=N5)/C(=C/C)NC(=O)C(C(C)O)NC(=O)c5csc(n5)C3(CC2)NC(=O)C(C)NC(=O)C(=C)NC(=O)C(C)NC(=O)C(C(C)CC)NC2C=Cc3c(C(C)O)cc(nc3C2O)C(=O)OC4C)n1)C(N)=O (stereo not given) [Thiostrepton]	1.04	1.06	0.933	1.12	0.972	1.35	0.9	1.2	0.865	1.12	0.948	1	0.972	1.01	0.99	0.931	0.66	0.771	0.606	1.11
CC(C(=O)O)c1ccc(CC2CCCC2=O)cc1 (stereo not given) [Loxoprofen]	1.33	1.83	1.71	1.53	1.74	1.52	1.69	1.19	1.51	1.13	1.2	1.36	1.38	1.1	1.13	1.2	1.11	1.27	1.16	0.818
CCCCC(=O)OC1(C(=O)CO)C(C)CC2C3CCC4=CC(=O)C=CC4(C)C3(F)C(O)CC21C (stereo not given) [Betamethasone Valerate]	0.655	1.26	0.876	1.48	1.28	1.11	1.47	1.01	0.956	0.835	0.0671	0.314	0.0651	0.367	0.0599	0.328	0.0714	0.39	0.0682	0.335
CC1CC2C3CCC4=CC(=O)C=CC4(C)C3(F)C(O)CC2(C)C1(O)C(=O)CO (stereo not given) [Betamethasone]	0.773	1.53	0.988	1.5	1.72	1.32	1.42	1.05	0.855	0.835	0.0741	0.22	0.0789	0.364	0.0736	0.251	0.0775	0.323	0.0642	0.331
O=c1[nH]c(=O)n(C2CCCO2)cc1F (stereo not given)	1.16	1.14	1.19	1.19	0.861	1.08	1.02	0.769	0.869	0.924	0.985	1.01	1.34	1.1	0.954	1.13	0.941	0.768	0.97	0.871
O=C(O)CCCCC1CCSS1 (stereo not drawn) [(+)-α-Lipoic acid]	1.05	0.957	1.34	0.728	0.955	0.859	1.21	0.991	0.772	0.834	1.04	0.766	0.91	0.742	0.747	0.718	0.74	0.876	0.89	0.935
CN1CCN2c3ncccc3Cc3ccccc3C2C1 (stereo not given) [Mirtazapine]	1.19	2.04	1.17	1.59	1.57	1.19	1.91	1.3	1.07	0.844	1.05	1.53	1.01	1.35	1.26	1.14	1.05	1.16	1.43	1.17
Cc1ccc(C(C)C)c(O)c1 [Thymol]	1.13	1.71	1.23	1.43	1.25	1.19	1.8	1.2	1.25	1.28	1.21	1.77	1.17	1.28	1.16	1.1	1.01	1.09	1.05	0.969

— the supplement of paper PMC9174493
